# Reference: the supplement of paper PMC9135407
# “And” between values parts separate entries of the source, which are not always exact repeats. Equal values may be shown once. Where a name gives a salt, the structure may show the parent alone. In all, about 5,800 compounds went through this assay and about 620 (11%) showed activity.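 The calls were made as follows: active = score above a cut-off or among the top three wells of a plate; in these data no inactive exceeds 0.85.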 The entries are a selection whose mix differs from that of the whole data set.
# System: primary human hepatic stellate cells (donor 1)
# Assay: scaled lipid accumulation score (0 = DMSO-like, 1 = nortriptyline-like); higher = stronger HSC inactivation (lipid re-accumulation), active = hit call of the paper
# Settings: 48 h
# [1] = library stock concentration: 10 mM
# [2] = library stock concentration: 3.33 mM
# [3] = library stock concentration: 80 uM
# [4] = library stock concentration: 400 uM
# [5] = library stock concentration: 2 mM
# [6] = library stock concentration: 1 mM
# [7] = library stock concentration: 5.9 mM
compound,measurement,setting,value
Cc1nc(N=Nc2ccc(S(=O)(=O)O)cc2S(=O)(=O)O)c(COP(=O)(O)O)c(C=O)c1O,scaled lipid accumulation score,[1],inactive: ≤ 0
Cc1ccc(O)c([C@H](CCN(C(C)C)C(C)C)c2ccccc2)c1,scaled lipid accumulation score,[1],inactive: 0.505
Cc1ccc(O)c([C@H](CCN(C(C)C)C(C)C)c2ccccc2)c1 [Tolterodine tartrate],scaled lipid accumulation score,[2],inactive: 0.216
same,scaled lipid accumulation score,[1],inactive: 0.836
CCCCC[C@H](CC(=O)NO)C(=O)N[C@H](C(=O)N1CCC[C@H]1CO)C(C)C [Actinonin],scaled lipid accumulation score,[1],inactive: ≤ 0
Cc1cc(C)cc(NC(=O)Cc2ccc(OC(C)(C)C(=O)O)cc2)c1 [Efaproxiral Sodium],scaled lipid accumulation score,[2],inactive: ≤ 0
same,scaled lipid accumulation score,[1],inactive: ≤ -0.001
CCN1/C(=C/C(C)=O)Sc2ccc(OC)cc21,scaled lipid accumulation score,[3],inactive: ≤ 0
same,scaled lipid accumulation score,[4],inactive: ≤ 0
same,scaled lipid accumulation score,[5],inactive: ≤ 0
same,scaled lipid accumulation score,[1],inactive: ≤ 0 and inactive: ≤ -0.034
"CN(C)C(=O)N=NC(=O)N(C)C [N,N,N',N'-Tetramethylazodicarboxamide]",scaled lipid accumulation score,[1],inactive: ≤ -0.07
Nc1nc(=O)c2c([nH]1)NCC(CNc1ccc(C(=O)N[C@@H](CCC(=O)O)C(=O)O)cc1)N2C=O (some centres undefined) [Leucovorin calcium],scaled lipid accumulation score,[1],inactive: ≤ 0
CCCCCCCCCCCCCCCCO [1-Hexadecanol],scaled lipid accumulation score,[2],inactive: ≤ 0
same,scaled lipid accumulation score,[1],inactive: ≤ -0.001
Cn1c(=O)c(F)c(Nc2ccc(I)cc2F)c2c(=O)n(C[C@@H](O)CO)cnc21,scaled lipid accumulation score,[2],inactive: 0.027
same,scaled lipid accumulation score,[1],inactive: 0.174
CC(C)(C)c1cc(NC(=O)Nc2ccc(-c3cn4c(n3)sc3cc(OCCN5CCOCC5)ccc34)cc2)no1 [Quizartinib  (AC220) (10 mM)],scaled lipid accumulation score,[1],active: 1.7
CC(C)(C)c1cc(NC(=O)Nc2ccc(-c3cn4c(n3)sc3cc(OCCN5CCOCC5)ccc34)cc2)no1 [Quizartinib  (AC220) (2 mM)],scaled lipid accumulation score,[5],active: 1.02
CCOc1ccc(-c2nc3ccc(-c4nc5ccc(N6CCN(C)CC6)cc5[nH]4)cc3[nH]2)cc1,scaled lipid accumulation score,library stock concentration: 8.9 mM,inactive: 0.339
CCCCC/C=C\C/C=C\CC/C=C\CCCC(=O)O [Pinolenic Acid],scaled lipid accumulation score,[6],inactive: 0.009
COc1ccc(-c2cc3c(C)nc(N)nc3n([C@H]3CC[C@H](OCCO)CC3)c2=O)cn1,scaled lipid accumulation score,[2],inactive: ≤ 0
same,scaled lipid accumulation score,[1],inactive: 0.45
CC1=NN(c2ccc(C(=O)O)cc2)C(=O)C1=Cc1ccc(-c2cc(C)c(C)cc2[N+](=O)[O-])o1,scaled lipid accumulation score,[2],inactive: ≤ -0.009
same,scaled lipid accumulation score,[1],inactive: ≤ 0
CCC(C)(C)c1ccc(CC(C)CN2C[C@@H](C)O[C@@H](C)C2)cc1 (some centres undefined) [Amorolfine],scaled lipid accumulation score,library stock concentration: 6.3 mM,inactive: ≤ -0.006
CCC(C)(C)c1ccc(CC(C)CN2C[C@@H](C)O[C@@H](C)C2)cc1 (some centres undefined),scaled lipid accumulation score,[1],inactive: 0.093
CCC(C)(C)c1ccc(CC(C)CN2C[C@@H](C)O[C@@H](C)C2)cc1 (some centres undefined) [Amorolfine HCl],scaled lipid accumulation score,[2],inactive: 0.118
same,scaled lipid accumulation score,[1],inactive: 0.354
CC(C)N(CCC(=O)c1ccc2ccccc2c1)Cc1ccccc1,scaled lipid accumulation score,[2],inactive: 0.613
same,scaled lipid accumulation score,[1],inactive: 0.619
CCOC(=O)c1ccc(C#Cc2ccc3c(c2)C(C)(C)CCS3)nc1 [Tazarotene],scaled lipid accumulation score,[2],inactive: ≤ 0
same,scaled lipid accumulation score,[1],inactive: ≤ 0
C=CC(=O)N1CCc2ccc(-n3c(=O)ccc4cnc5ccc(-c6cnn(C)c6)cc5c43)cc21,scaled lipid accumulation score,[1],active: 1.19
CC[C@]12CCCN3CCc4c(n(c5ccccc45)[C@@](O)(C(=O)OC)C1)[C@@H]32 [Vincamine],scaled lipid accumulation score,,inactive: 0.122
same,scaled lipid accumulation score,[1],inactive: ≤ 0
O=C(NC1CC1)c1cccc(-c2ccc3c(NC(=O)C4CC4)n[nH]c3c2)c1,scaled lipid accumulation score,[3],inactive: ≤ 0
same,scaled lipid accumulation score,[4],inactive: ≤ 0
same,scaled lipid accumulation score,[5],inactive: ≤ 0
same,scaled lipid accumulation score,[1],inactive: ≤ 0
CC1=C(C(=O)OCCN(Cc2ccccc2)c2ccccc2)C(c2cccc([N+](=O)[O-])c2)C(P2(=O)OCC(C)(C)CO2)=C(C)N1 (centres undefined) [Efonidipine hydrochloride monoethanolate],scaled lipid accumulation score,[1],inactive: ≤ 0
CCCCCCCCCCCCCCCCn1cc[n+](Cc2ccccc2)c1C.[I-],scaled lipid accumulation score,[2],active: 0.92
CCCNS(=O)(=O)Nc1ncnc(OCCOc2ncc(Br)cn2)c1-c1ccc(Br)cc1 [Macitentan],scaled lipid accumulation score,[2],inactive: ≤ -0.009
same,scaled lipid accumulation score,[1],inactive: ≤ 0
CC(CCc1ccc(O)cc1)NCCc1ccc(O)c(O)c1 (centres undefined) [Dobutamine hydrochloride],scaled lipid accumulation score,,inactive: 0.023
same,scaled lipid accumulation score,[7],inactive: ≤ 0
same,scaled lipid accumulation score,[1],inactive: ≤ -0.063 and inactive: 0.03 and inactive: ≤ -0.027
CC(CCc1ccc(O)cc1)NCCc1ccc(O)c(O)c1 (centres undefined) [Dobutamine HCl],scaled lipid accumulation score,library stock concentration: 6.6 mM,inactive: ≤ -0.001
N[C@@H](CCC(=O)N[C@@H](CSN=O)C(=O)NCC(=O)O)C(=O)O [S-Nitrosoglutathione],scaled lipid accumulation score,[1],inactive: ≤ -0.032
CC(O)(C(=O)Nc1ccc(S(=O)(=O)c2ccccc2)cc1)C(F)(F)F (centres undefined),scaled lipid accumulation score,[1],inactive: ≤ 0
same,scaled lipid accumulation score,library stock concentration: 13.4 mM,inactive: 0.145
COc1cc2c(Oc3ccc(NC(=O)C4(C(=O)Nc5ccc(F)cc5)CC4)cc3F)ccnc2cc1OCCCN1CCOCC1,scaled lipid accumulation score,[2],active: 1.09
CCOc1nc2cccc(C(=O)OC(C)OC(=O)OC3CCCCC3)c2n1Cc1ccc(-c2ccccc2-c2nn[nH]n2)cc1 (centres undefined) [Candesartan cilextil],scaled lipid accumulation score,[1],inactive: ≤ -0.027
CCOc1nc2cccc(C(=O)OC(C)OC(=O)OC3CCCCC3)c2n1Cc1ccc(-c2ccccc2-c2nn[nH]n2)cc1 (centres undefined) [Candesartan Cilexetil],scaled lipid accumulation score,[2],inactive: ≤ 0
same,scaled lipid accumulation score,[1],inactive: ≤ 0
CCN(CC)CCCCNc1ncc2c(n1)N(C)C(=O)N(c1c(Cl)c(OC)cc(OC)c1Cl)C2,scaled lipid accumulation score,[3],inactive: ≤ -0.008
same,scaled lipid accumulation score,[4],inactive: ≤ -0.008
same,scaled lipid accumulation score,[5],inactive: ≤ -0.001
same,scaled lipid accumulation score,[1],inactive: 0.416
O=c1cc(O)cc(/C=C/c2ccc(O)c(O)c2)o1 [Hispidin],scaled lipid accumulation score,[1],inactive: ≤ -0.07
C#C[C@]1(O)CCC2C3CCC4=CC(=O)CC[C@@H]4C3CC[C@@]21CC (some centres undefined) [Norgestrel],scaled lipid accumulation score,library stock concentration: 6.4 mM,active: 1.05
Nc1ccc(S(N)(=O)=O)cc1 [Sulfanilamide],scaled lipid accumulation score,,inactive: 0.004
same,scaled lipid accumulation score,[2],inactive: ≤ 0
same,scaled lipid accumulation score,[1],inactive: ≤ 0 and inactive: 0.002
same,scaled lipid accumulation score,library stock concentration: 11.6 mM,inactive: 0.007
CC1CCN(CCCC(=O)c2ccc(F)cc2)CC1 [Metylperon],scaled lipid accumulation score,[1],inactive: ≤ 0
CC1CCN(CCCC(=O)c2ccc(F)cc2)CC1 [Melperone hydrochloride],scaled lipid accumulation score,[1],inactive: 0.058
CC1CCN(CCCC(=O)c2ccc(F)cc2)CC1,scaled lipid accumulation score,[1],inactive: ≤ 0
CCCCCCCCCCCC(=O)O [Lauric Acid],scaled lipid accumulation score,[6],inactive: 0.017
O=S(=O)(c1cccc2c(I)cccc12)N1CCCNCC1,scaled lipid accumulation score,[1],active: 0.931
Clc1ccc(-c2nc3sccn3c2/C=N/OCc2ccc(Cl)c(Cl)c2)cc1,scaled lipid accumulation score,[1],inactive: 0.034
CCN1CCC[C@H]1CNC(=O)c1cc(S(N)(=O)=O)ccc1OC [Levosulpiride],scaled lipid accumulation score,[2],inactive: ≤ 0
same,scaled lipid accumulation score,[1],inactive: ≤ 0
CCN1CCC[C@H]1CNC(=O)c1cc(S(N)(=O)=O)ccc1OC [(S)-(-)-Sulpiride],scaled lipid accumulation score,[1],inactive: 0.016
CCN1CCC[C@H]1CNC(=O)c1cc(S(N)(=O)=O)ccc1OC [Sulpiride s (-)],scaled lipid accumulation score,[7],inactive: ≤ -0.006
CCN1CCC[C@H]1CNC(=O)c1cc(S(N)(=O)=O)ccc1OC,scaled lipid accumulation score,[1],inactive: ≤ 0
CNCCCC1c2ccccc2C=Cc2ccccc21.Cl [Protriptyline hydrochloride],scaled lipid accumulation score,,active: 1.24
same,scaled lipid accumulation score,[1],active: 0.911
N[C@@H](CSS(=O)(=O)O)C(=O)O [S-Sulfo-L-cysteine sodium salt],scaled lipid accumulation score,[1],inactive: ≤ 0
CCCCCC(O)C=CC1C(O)CC(O)C1CCCCCCC(=O)O (centres undefined) [Prostaglandin  F1a],scaled lipid accumulation score,[6],inactive: ≤ -0.021
CCCCC[C@H](O)/C=C/[C@@H]1[C@@H](CCCCCCC(=O)O)[C@@H](O)C[C@H]1O [Prostaglandin F1.alpha.],scaled lipid accumulation score,[6],inactive: ≤ 0
CN(CCOc1ccc(-c2ccc3c(c2)OCO3)cc1C(C)(C)C)CC(=O)O,scaled lipid accumulation score,[1],inactive: ≤ 0
CC(C)(Oc1ccc(C2CC2(Cl)Cl)cc1)C(=O)O (centres undefined) [Ciprofibrate],scaled lipid accumulation score,,inactive: ≤ 0
same,scaled lipid accumulation score,[2],inactive: ≤ 0
same,scaled lipid accumulation score,[1],inactive: ≤ 0 and inactive: 0.011
NC(=O)[C@@H](CCC(F)(F)F)N(Cc1ccc(-c2ncon2)cc1F)S(=O)(=O)c1ccc(Cl)cc1,scaled lipid accumulation score,[2],inactive: ≤ 0
same,scaled lipid accumulation score,[1],inactive: ≤ 0
O=C(O)CCC/C=C\C[C@@H]1[C@@H](/C=C/[C@H](O)C2Cc3ccccc3C2)[C@@H](F)C[C@@H]1O,scaled lipid accumulation score,[1],inactive: ≤ -0.07
COc1ccc(CNCc2cccc3ccccc23)cc1,scaled lipid accumulation score,[2],inactive: 0.023
same,scaled lipid accumulation score,[1],inactive: 0.491
N#CC(=C(/N)Sc1ccccc1N)/C(C#N)=C(\N)Sc1ccccc1N,scaled lipid accumulation score,[2],inactive: ≤ 0
same,scaled lipid accumulation score,[1],inactive: ≤ 0
CC1=C(C(=O)O)N2C(=O)[C@@H](NC(=O)[C@H](N)c3ccc(O)cc3)[C@H]2SC1 [Cefadroxil],scaled lipid accumulation score,,inactive: ≤ 0
same,scaled lipid accumulation score,[1],inactive: ≤ 0
Nc1nc(Nc2ccc(S(N)(=O)=O)cc2)nn1C(=O)c1c(F)cccc1F,scaled lipid accumulation score,[4],inactive: ≤ -0.005
same,scaled lipid accumulation score,[5],inactive: ≤ -0.005
same,scaled lipid accumulation score,[2],inactive: 0.046
same,scaled lipid accumulation score,[1],inactive: ≤ 0 and inactive: ≤ -0.005
CC(C)c1onc(-c2c(Cl)cccc2Cl)c1COc1ccc(/C=C/c2cccc(C(=O)O)c2)c(Cl)c1,scaled lipid accumulation score,[2],inactive: ≤ 0
same,scaled lipid accumulation score,[1],inactive: ≤ 0 and inactive: 0.025
C[C@@]1(O)[C@H](O)[C@@H](CO)O[C@H]1n1cnc2c(NC3CCCC3)nc(Cl)nc21,scaled lipid accumulation score,[1],inactive: 0.013
C=CCN1CCCC1CNC(=O)c1cc2nn[nH]c2cc1OC (centres undefined) [Alizapride HCl],scaled lipid accumulation score,,inactive: ≤ 0
same,scaled lipid accumulation score,[2],inactive: ≤ 0
same,scaled lipid accumulation score,[1],inactive: ≤ -0.001
